Data on 167 variants can be found in the RNAGym collection of RNA variant scans (doi:10.7554/elife.90254).

Sequences and labels used below:
B1: LINE1-mini (parent)
chain: GGCAGAGCUCAACACAGCGUGGCAAAGUGGCUGUGGCUAGACUGCC

The source gives no read counts; variants with many changes may rest on few reads.

In the data set the parent is B1. As to the kind of experiment: self-cleavage, relative activity (ratio to wild type); higher = more cleavage; in vitro, sequencing; the parent is a self-cleaving ribozyme.
On to A11U A26U U34G, for which the self-cleavage was determined as 0.04.

With G5A G7C G29C G33U, the self-cleavage is 0.03.

Regarding G17A G29C G40U C46U, the self-cleavage is 0.09.

For the variant G7C A14C C15G G27U U28C U38G C46A, the self-cleavage was 0.01.

On to C8A C13U G17A C18G, for which the self-cleavage turned out to be 0.29.

As to G27U C31G G36A A39C, the self-cleavage stood at 0.12.

For G2C A12U G22C G27A G29U, the self-cleavage was 0.05.

Take A4C C13A G21U G35U: the self-cleavage was determined as 0.11.

Regarding U32C G35C C46A, the self-cleavage was 0.02.

With G2A A4U G19U C46A, the self-cleavage worked out at 0.1.

As to G7U U9G G29U C37U A39C, the self-cleavage worked out at 0.03.

For G2A G36A A39G C42U, the self-cleavage turned out to be 0.16.

As for C10A C31G C37U, the self-cleavage came to 0.01.

For A6C C23G G27C, the self-cleavage was determined as 0.16.

G1U A14U C18A: the self-cleavage is 0.11.

Turning to C23A U38A G40A, the self-cleavage amounted to 0.23.

Regarding G1U G5C U28G C31U, the self-cleavage amounted to 0.02.

Turning to C8A A14U C45G, the self-cleavage was determined as 0.35.

On to C15A U32G G35U U38G, for which the self-cleavage was determined as 0.02.

In the case of C10G A14G G19U, the self-cleavage stood at 0.02.

A24G A25G G29C C31G G40A C42A: the self-cleavage is 0.07.

In the case of A14U G22C C37G A41C, the self-cleavage stood at 0.03.

With C8G U43G C45A, the self-cleavage is 0.03.

As for G1A U28G A39U, the self-cleavage was found to be 1.47.

Consider G5A U9C C13A G22U, for which the self-cleavage stood at 0.01.

With U32C G33U G40A, the self-cleavage is 0.04.

For G5U G22A G36C, the self-cleavage was 0.05.

As to A16C G22C A24G U28A G36C C37U C42U C45U C46U, the self-cleavage is 0.04.

On to C8G G21C G29U G30U G36C, for which the self-cleavage came to 0.16.

For G21C A25U U32A G33A G40A, the self-cleavage was found to be 0.08.

For A16C G19C U20G A25C G35A, the self-cleavage stood at 0.07.

With A4C A6G C8A A26C U34A, the self-cleavage is 0.1.

Regarding C3A C10U A14C G21U U28G G33C C45G, the self-cleavage is 0.

For C3G A4U A11G, the self-cleavage stood at 0.03.

As to A26C G33U U34A, the self-cleavage came to 0.05.

G1U A24G C37U C45U: the self-cleavage worked out at 0.

For A14U A26U U28A G29C G40A, the self-cleavage came out at 0.03.

Regarding C15A G19A A26G C42A, the self-cleavage stood at 0.05.

Regarding U9G A11U A41U, the self-cleavage stood at 0.01.

With G1U A14G C23U, the self-cleavage is 0.14.

G21A A25C G29U: the self-cleavage amounted to 0.93.

On to A6G C13G G29C, for which the self-cleavage worked out at 0.04.

Consider G1C U9C C13G A24C A41U, for which the self-cleavage is 0.02.

In the case of C8A G21A A41C C42G, the self-cleavage was found to be 0.35.

In the case of G7U A11U G40A, the self-cleavage was determined as 0.04.

For A4G A14U U32C, the self-cleavage came out at 0.35.

Regarding C18A G29U U34C, the self-cleavage stood at 0.09.

Consider G1C U32G G33A G35U G44U, for which the self-cleavage came to 0.01.

G5C G7C C18U G22C: the self-cleavage came out at 0.04.

Regarding C13A U28A G29U U34G A41U, the self-cleavage was 0.01.

Take G2U G33A C45U: the self-cleavage amounted to 0.03.

As for A4U G17U C23G, the self-cleavage amounted to 0.03.

Take A12U A16U G27C: the self-cleavage came out at 0.

For the variant G21C G27A U34G, the self-cleavage is 0.08.

Regarding A6U G27U G36U, the self-cleavage was 0.18.

For the variant C15U C18U C37U, the self-cleavage was found to be 0.1.

Consider U20A U34C G36U G40A, for which the self-cleavage came to 0.13.

On to U28C G33A G44U, for which the self-cleavage came out at 0.03.

Turning to C3U G19A G27A C42U, the self-cleavage worked out at 0.05.

As to G1U G5C A14U, the self-cleavage is 0.04.

For the variant G5C A14C G30U U43A, the self-cleavage turned out to be 0.02.

Take G21U C23U U43C: the self-cleavage worked out at 0.13.

As for G1C C18A A25C, the self-cleavage came out at 0.

Regarding G1C A6C C31A C46U, the self-cleavage turned out to be 0.01.

With U9A C10G G30C, the self-cleavage is 0.02.

For C3A A6U U9C G33C G36A, the self-cleavage came to 0.03.

Take G1A C8A C10U G44A C46A: the self-cleavage amounted to 0.04.

Regarding C18A C23G G33U, the self-cleavage was 0.02.

As for C10G A11G G19U G30A, the self-cleavage was 0.01.

In the case of G22C A24U U32C, the self-cleavage is 0.1.

In the case of A6C A11G C23U C37G, the self-cleavage came to 0.01.

As for C3G C8A C15A G19A A24C A26U, the self-cleavage was determined as 0.54.

As for G30C A39G U43A, the self-cleavage is 0.15.

On to G17A G22A C37A C45G, for which the self-cleavage came out at 0.06.

Consider U28A C31U C45A, for which the self-cleavage was 0.08.

With U9G A16C G30A U32C, the self-cleavage turned out to be 0.03.

Consider G17C G27U G29C, for which the self-cleavage turned out to be 0.04.

In the case of C13U G22A A26G G30U G33U U38G, the self-cleavage was 0.

With C23U A26U G29A C37G, the self-cleavage was determined as 0.02.

Consider G1U C15A G21U U32G, for which the self-cleavage was 0.03.

In the case of C3U G5U G7A A16U G21C, the self-cleavage was found to be 0.06.

Turning to G19A G22U A39U, the self-cleavage stood at 0.58.

In the case of G5A A6U G30U A41C, the self-cleavage was 0.02.

Take A25G G27U G30C A39U: the self-cleavage came out at 0.2.

Turning to C13A G22U G29U, the self-cleavage was 0.11.

Regarding G2C G5A G22A G27U C42G, the self-cleavage is 0.01.

For G22A C31U U34G U38A, the self-cleavage was 0.01.

Consider G5C G22A G30C, for which the self-cleavage was found to be 0.04.

C18G G27A U32A U38C C45A: the self-cleavage turned out to be 0.1.

With C8A A14C G33U C37A A39C A41G, the self-cleavage is 0.03.

As for C13U U20A A26U G30A, the self-cleavage came out at 0.09.

Turning to G7U U9A A12G C46G, the self-cleavage was determined as 0.07.

Regarding A6G C23A G35C U43C, the self-cleavage stood at 0.03.

Take G5U C13G U43G: the self-cleavage came to 0.

G5C A12G C18A: the self-cleavage is 0.02.

Regarding C8A A26C G27C, the self-cleavage was 0.02.

With G7C G19C C23G, the self-cleavage turned out to be 0.04.

As to C13A G19C G29C C37G, the self-cleavage was found to be 0.02.

G2C C8U A14U C37A: the self-cleavage worked out at 0.01.

As for C8U U9C A25G G27A, the self-cleavage turned out to be 0.03.

For the variant G2U U9C A24C, the self-cleavage worked out at 0.02.

Turning to A12G C15G A16U G17A G36U, the self-cleavage turned out to be 0.16.

As for A4G C10A G29U, the self-cleavage turned out to be 0.04.

Take G1C U9C A16U G40U: the self-cleavage turned out to be 0.02.

Take G2U C3A A4C C23U A24G: the self-cleavage was determined as 0.07.

In the case of C10A U32A G40A, the self-cleavage amounted to 0.06.

Consider G17U G21C U28A G29U G44A, for which the self-cleavage was 0.36.

Regarding U34G A41U C42U, the self-cleavage turned out to be 0.01.

For A6G C8A A25U G30A, the self-cleavage is 0.36.

Take C18A G19C G30U U34C: the self-cleavage stood at 0.04.

For the variant C3U G17C U28A U32C U34A U38G C42A, the self-cleavage worked out at 0.03.

G21A A26C G27A G30U: the self-cleavage was 0.33.

With C8U G27U G29C, the self-cleavage worked out at 0.19.

Regarding G7C A12G C37A G40U, the self-cleavage stood at 0.04.

As to C18A G22C A26C U32G G40A, the self-cleavage worked out at 0.01.

For G7A C8G G30C C42A, the self-cleavage was found to be 0.02.

With U9A C18G A41G, the self-cleavage stood at 0.2.

Turning to C15G G22U C23A G29A, the self-cleavage worked out at 0.17.

As to U28A G33C A39C, the self-cleavage turned out to be 0.09.

With G5C A16C G19C G21U G35U, the self-cleavage was 0.02.

With A11G C23U A26U, the self-cleavage was 0.04.

C10A A11U G21C U43G C45A: the self-cleavage amounted to 0.

G19A G27U G30C: the self-cleavage was found to be 0.35.

Turning to G2A U9C A14C, the self-cleavage turned out to be 0.08.

As for A11C C13U A14G U32C G44A, the self-cleavage is 0.

In the case of A12G G22A G30U G40C, the self-cleavage came to 0.

As to G7C C15A C23A, the self-cleavage turned out to be 0.06.

For C10A A26U G33U C42A, the self-cleavage stood at 0.02.

As to G1A G7C A16U G33U G40U, the self-cleavage worked out at 0.07.

Take U20A G27U G44C: the self-cleavage stood at 0.62.

As for A4C C18A U20G G22A, the self-cleavage was found to be 0.03.

As to A11U C13A C15A C18G A26C C46A, the self-cleavage came to 0.02.

Regarding C3A C37U U43A, the self-cleavage amounted to 0.19.

As to C10G G22U G36U, the self-cleavage stood at 0.02.

With A16U G21A A24G G33U, the self-cleavage worked out at 0.

On to G7A C23A G27C, for which the self-cleavage was 0.13.

For G1A A4U C37A, the self-cleavage was 0.07.

Regarding C18A A26U A39U C46A, the self-cleavage is 0.04.

For the variant A11U G29U G35U G36U, the self-cleavage is 0.07.

Turning to C10A A16U G22A A41U, the self-cleavage came to 0.02.

For the variant C3A A4C G30A, the self-cleavage came to 0.42.

With A11C G40C C46A, the self-cleavage turned out to be 0.02.

C10A G29C G33C G36A: the self-cleavage was 0.02.

Take A4U U20G G22C U34A G36A: the self-cleavage was found to be 0.07.

For the variant G1U C10G C15U G30U C46U, the self-cleavage was 0.02.

Consider A6U C8U C15A, for which the self-cleavage stood at 0.06.

For G1C C8A G21U U32A U38G G44A, the self-cleavage is 0.04.

On to A4C U20C A24G G27U G29A G36A C37G, for which the self-cleavage was 0.02.

Take G7C A14G G21A: the self-cleavage turned out to be 0.04.

Take G2U A24C A25U G40U C46U: the self-cleavage was determined as 0.02.

As for G5U G7U C8G C13U, the self-cleavage came to 0.33.

On to G5C A6U C18U G29A U43G, for which the self-cleavage was determined as 0.02.

G19C A25G G36C: the self-cleavage amounted to 0.19.

For the variant U20A A41C C45A, the self-cleavage stood at 0.04.

For the variant C8G U20A G40U, the self-cleavage was found to be 0.12.

Turning to A16G C31U C45G, the self-cleavage stood at 0.03.

On to G5U U20G C23G G36A, for which the self-cleavage was determined as 0.16.

With G1U G5U G30A C37G, the self-cleavage came out at 0.36.

In the case of A11G A14C C23G, the self-cleavage amounted to 0.02.

A4G C31U C37A: the self-cleavage was 0.05.

A14U G19A A26C C42G: the self-cleavage is 0.07.

Consider G2C G5U G7A C10U G17A, for which the self-cleavage came out at 0.03.

Take C3A G5A A16U C37U U43G C45G: the self-cleavage was 0.24.

On to U20G A26U U28A, for which the self-cleavage stood at 0.14.

For the variant C31G G35C G40C, the self-cleavage turned out to be 0.05.

As to G1U A6G C18U, the self-cleavage came to 0.

For the variant G2C C15U A16U A24U G27A G35A C46A, the self-cleavage was found to be 0.01.
